In the supplement of paper PMC4967469:
The IC50 comes from the fitted curve, where viability falls to half of the control; where the fit passes the top or lowest dose, that dose stands as a limit. AUC sums up the same curve from the lowest dose to the 256-fold higher top dose; values near 1 show little effect. For some of these results: Where the top dose is marked as inferred, it was calculated from the reported fits. For some of these results: Where an entry number is given, a second screen of the drug exists; the two often differ.

Tests used:
Assay in all cases: Viability of human cancer cell lines after 72 h of drug (GDSC screen)
KIN001-270 = compound: Cc1ccc(Nc2cc(-c3cccc(N4C(=O)c5ccccc5C4=O)c3)ncn2)cc1NS(C)(=O)=O [KIN001-270]; settings: top dose 20 µM; top dose inferred
Procedure: (§1)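 Human cancer cell lines in 384-well plates, medium with 10% serum, drug for 72 h over a 256-fold dose range (nine 2-fold or five 4-fold steps up to the top dose). Adherent lines were fixed and stained with the nucleic acid dye Syto60, suspension lines read with resazurin; signal relative to control wells, capped at 0 and 100%. One two-parameter sigmoid per drug and line, fitted in a mixed model over all curves with the slope shared within a line.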

TW-37 = compound: CC(C)c1ccccc1Cc1cc(C(=O)Nc2ccc(S(=O)(=O)c3ccccc3C(C)(C)C)cc2)c(O)c(O)c1O [TW-37]; settings: top dose 5 µM
Procedure: as §1

MP470 = compound: S=C(NCc1ccc2c(c1)OCO2)N1CCN(c2ncnc3c2oc2ccccc23)CC1 [MP470]; settings: top dose 20 µM; top dose inferred
Procedure: as §1

AUY922 = compound: CCNC(=O)c1noc(-c2cc(C(C)C)c(O)cc2O)c1-c1ccc(CN2CCOCC2)cc1 [AUY922]; settings: top dose 0.256 µM; top dose inferred
Procedure: as §1

Nilotinib = compound: Cc1cn(-c2cc(NC(=O)c3ccc(C)c(Nc4nccc(-c5cccnc5)n4)c3)cc(C(F)(F)F)c2)cn1 [Nilotinib]; settings: top dose 2 µM
Procedure: as §1

Bicalutamide = compound: CC(O)(CS(=O)(=O)c1ccc(F)cc1)C(=O)Nc1ccc(C#N)c(C(F)(F)F)c1 [Bicalutamide]; settings: top dose inferred
Procedure: as §1

GNF-2 = compound: NC(=O)c1cccc(-c2cc(Nc3ccc(OC(F)(F)F)cc3)ncn2)c1 [GNF-2]; settings: top dose 1.28 µM; top dose inferred
Procedure: as §1

Gemcitabine = compound: Nc1ccn([C@@H]2O[C@H](CO)[C@@H](O)C2(F)F)c(=O)n1 [Gemcitabine]; settings: top dose 1.024 µM
Procedure: as §1

T0901317 = compound: O=S(=O)(c1ccccc1)N(CC(F)(F)F)c1ccc(C(O)(C(F)(F)F)C(F)(F)F)cc1 [T0901317]; settings: top dose 10.24 µM; top dose inferred
Procedure: as §1

LFM-A13 = compound: C/C(O)=C(\C#N)C(=O)Nc1cc(Br)ccc1Br [LFM-A13]; settings: top dose 16 µM; top dose inferred
Procedure: as §1

[1] = top dose 1.024 µM, screen: GDSC drug entry 150
[2] = top dose 10 µM, screen: GDSC drug entry 1502

Row | Cell Line | AUC (KIN001-270) | IC50 (KIN001-270) [µM] | AUC (TW-37) | IC50 (TW-37) [µM] | AUC (MP470) | IC50 (MP470) [µM] | AUC (AUY922) | IC50 (AUY922) [µM] | AUC (Nilotinib) | IC50 (Nilotinib) [µM] | AUC (Bicalutamide; [1]) | IC50 (Bicalutamide; [1]) [µM] | AUC (Bicalutamide; [2]) | IC50 (Bicalutamide; [2]) [µM] | AUC (GNF-2) | IC50 (GNF-2) [µM] | AUC (Gemcitabine) | IC50 (Gemcitabine) [µM] | AUC (T0901317) | IC50 (T0901317) [µM] | AUC (LFM-A13) | IC50 (LFM-A13) [µM]
1 | HAL-01 (lymphoblastic leukaemia, suspension) | 0.974 | > 20 | 0.372 | 0.145 | 0.806 | 8.75 | 0.622 | 0.0332 | 0.913 | > 2 | 0.989 | > 1.02 | 0.975 | > 10 | 0.989 | > 1.28 | 0.125 | 0.00508 | 0.949 | > 10.2 | 0.983 | > 16
2 | HC-1 (hairy cell leukaemia, suspension) | 0.957 | > 20 | 0.846 | 3.42 | 0.915 | > 20 | 0.57 | 0.0247 | 0.955 | > 2 | 0.986 | > 1.02 | 0.982 | > 10 | 0.987 | > 1.28 | 0.208 | 0.00925 | 0.969 | > 10.2 | 0.979 | > 16
3 | HCC1187 (breast, suspension) | 0.975 | > 20 | 0.551 |  | 0.924 | > 20 | 0.924 | > 0.256 | 0.985 | > 2 | 0.987 | > 1.02 | 0.976 | > 10 | 0.983 | > 1.28 | 0.986 | > 1.02 | 0.969 | > 10.2 | 0.985 | > 16
4 | HCC2157 (breast, suspension) | 0.956 | > 20 | 0.585 | 0.541 | 0.848 | 16 | 0.671 | 0.0492 | 0.895 | > 2 | 0.986 | > 1.02 | 0.986 | > 10 | 0.985 | > 1.28 | 0.884 | > 1.02 | 0.963 | > 10.2 | 0.917 | > 16
5 | HCC2218 (breast, suspension) | 0.922 | > 20 | 0.673 | 1.08 | 0.463 | 0.963 | 0.713 | 0.076 | 0.983 | > 2 | 0.979 | > 1.02 | 0.98 | > 10 | 0.965 | > 1.28 | 0.93 | > 1.02 | 0.937 | > 10.2 | 0.976 | > 16
6 | HDLM-2 (Hodgkin lymphoma, suspension) | 0.989 | > 20 | 0.836 | 3.25 | 0.958 | > 20 | 0.604 | 0.0307 | 0.958 | > 2 | 0.988 | > 1.02 | 0.985 | > 10 | 0.988 | > 1.28 | 0.868 | 0.905 | 0.98 | > 10.2 | 0.971 | > 16
7 | HL-60 (acute myeloid leukaemia, suspension) | 0.981 | > 20 | 0.671 | 0.882 | 0.858 | 13.8 | 0.493 | 0.0154 | 0.941 | > 2 | 0.987 | > 1.02 | 0.986 | > 10 | 0.983 | > 1.28 | 0.243 | 0.0128 | 0.942 | > 10.2 | 0.989 | > 16
8 | HSC-39 (stomach, suspension) | 0.991 | > 20 | 0.529 | 0.371 | 0.933 | > 20 | 0.944 | > 0.256 | 0.961 | > 2 | 0.991 | > 1.02 | 0.99 | > 10 | 0.991 | > 1.28 | 0.984 | > 1.02 | 0.967 | > 10.2 | 0.991 | > 16
9 | HT (B-cell lymphoma, suspension) | 0.941 | > 20 | 0.59 | 0.538 | 0.957 | > 20 | 0.806 | 0.118 | 0.99 | > 2 | 0.988 | > 1.02 | 0.94 | > 10 | 0.99 | > 1.28 | 0.907 | > 1.02 | 0.968 | > 10.2 | 0.984 | > 16
10 | HUTU-80 (digestive system, adherent) | 0.954 | > 20 | 0.292 | 0.0913 | 0.679 | 3.57 | 0.44 | 0.0113 | 0.983 | > 2 | 0.991 | > 1.02 | 0.988 | > 10 | 0.991 | > 1.28 | 0.017 | < 0.004 | 0.953 | > 10.2 | 0.98 | > 16
11 | IMR-5 (neuroblastoma, adherent) | 0.974 | > 20 | 0.61 | 0.596 | 0.963 | > 20 | 0.706 | 0.0546 | 0.991 | > 2 | 0.988 | > 1.02 | 0.971 | > 10 | 0.988 | > 1.28 | 0.357 | 0.0277 | 0.989 | > 10.2 | 0.98 | > 16
